# Data from PubChem BioAssay AID624417 (National Center for Advancing Translational Sciences (NCATS), 2012).
# The campaign covered roughly 410,000 compounds. About 6,400 (1.6%) were called active. The shares of active, inactive and inconclusive entries below differ from those in the screen. Calls come from the whole dose curve; as a rule, active = well fitted inhibition curve with a large enough effect; inconclusive = small, poorly fitted or top-dose-only effect; inactive = no such curve, though single readings can be large or run the other way. No potency is given beside an inconclusive call; the fits are too rough.
# Target: Glucagon-like peptide 1 receptor (Homo sapiens) (UniProt P43220)
# UniProt P43220, sequence (P43220 whole entry, looked up): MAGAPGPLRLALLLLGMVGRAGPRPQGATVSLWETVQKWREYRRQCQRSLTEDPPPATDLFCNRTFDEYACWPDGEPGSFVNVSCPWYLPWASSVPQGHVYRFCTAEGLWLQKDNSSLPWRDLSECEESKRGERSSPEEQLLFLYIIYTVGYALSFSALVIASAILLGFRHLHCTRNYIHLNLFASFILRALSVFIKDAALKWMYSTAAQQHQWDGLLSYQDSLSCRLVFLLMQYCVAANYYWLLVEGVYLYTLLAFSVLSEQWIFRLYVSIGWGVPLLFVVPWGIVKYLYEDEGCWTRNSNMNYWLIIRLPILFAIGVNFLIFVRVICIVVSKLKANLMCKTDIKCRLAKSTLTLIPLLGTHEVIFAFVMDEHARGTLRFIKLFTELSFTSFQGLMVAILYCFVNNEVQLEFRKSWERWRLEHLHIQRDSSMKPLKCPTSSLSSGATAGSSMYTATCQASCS
# Assay: qHTS of GLP-1 Receptor Inverse Agonists (Inhibition Mode); note: nearly all actives have a fitted effect of over 55% in size
# Settings: HEK293 GLP-1R CRE-luciferase, luminescence, 24 h, GLP-1R form is constitutively active; series mostly up to 38.3 µM
# In short: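 Luminescence readout: a drop in cAMP-driven luciferase signal flags inverse agonism at a constitutively active GLP-1R stably expressed in HEK293. Compound exposure lasted 24 hr at 37 deg C, 5% CO2.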
# Potency is the fitted concentration of half-maximal effect; tags give direction and shape of the fitted curve.
row,SMILES,Potency
1,CC(C)Cc1cc(C(=O)NCc2cccs2)no1,"inconclusive [inhibitor, partial curve]"
2,Cc1ccc(-c2ccc(/C=N/c3ncn[nH]3)o2)cc1Cl,active: 8.91 µM
3,COc1ccc(COc2cc(-c3cccc(OC)c3)nc3ccc(NC(=O)c4ccc(N(C)C)cc4)cc23)cc1,"inconclusive [inhibitor, full curve, poor fit]"
4,Cc1ccc(CN2CCN(c3ccccc3)CC2)o1,inactive
5,COc1cc(/C=N/NC(=O)c2ccccc2Cl)ccc1Oc1ccc([N+](=O)[O-])cn1,"inconclusive [inhibitor, partial curve]"
6,COc1cccc(C(C(=O)NC2CCCC2)N(CCC(C)C)C(=O)CCC(=O)Nc2cc(C)on2)c1 (stereo not drawn),"inconclusive [inhibitor, single point]"
7,CCOC(=O)/C(C#N)=C1/C=CN(Cc2ccccc2)C=N1,"inconclusive [inhibitor, full curve, poor fit]"
8,Cc1nc(SCc2cccc(Cl)c2)nc2c1CCCC2,inactive
9,NC(=O)NC(Cc1ccccc1)c1ccccc1 (stereo not drawn),"inconclusive [inhibitor, partial curve, poor fit]"
10,O=C(NC1CCCCC1)[C@H](CSCc1ccccc1)N1Cc2ccccc2C1=O,"inconclusive [inhibitor, partial curve, poor fit]"
11,CC(C)N(Cc1nc(-c2ccc(Cl)cc2)no1)C(=O)c1ccc(C(C)(C)C)cc1,inactive
12,O=C1OC(c2cccc3c(F)cccc23)c2ccccc21 (stereo not drawn),"inconclusive [inhibitor, single point]"
13,COc1ccc(-c2cc(C(=O)N3CCOCC3)c3cc(C)ccc3n2)cc1,"inconclusive [inhibitor, partial curve]"
14,O=C(c1ccc(COc2ccccc2Cl)o1)N1CCN(c2ccccc2)CC1,"inconclusive [inhibitor, partial curve, poor fit]"
15,Cc1ccoc1C(=O)Nc1cccc(Oc2ccccc2)c1,"inconclusive [inhibitor, single point]"
16,Cc1c(C)n(CCN(C)C)c2ccc(C(=O)OCCN(C)C)cc12,"inconclusive [inhibitor, partial curve, poor fit]"
17,Cc1ccc2ncc(C(=O)c3ccc(C)c(C)c3)c(S(=O)(=O)c3ccc(F)cc3)c2c1,active: 12.6 µM
18,O=C(NC(Cc1ccccc1)C(=O)N1CCN(c2ccccc2O)CC1)c1ccccc1 (stereo not drawn),"inconclusive [inhibitor, partial curve, poor fit]"
